Values joined by “and” are separate entries in the source; they are usually repeats but may differ in a detail not shown here. Equal values may be shown once. The whole screen tested about 420,000 compounds, of which about 64,000 (15%) were called active. The shares of active, inactive and inconclusive entries below differ from those in the screen. The call rests on the fitted dose curve; in most records, active means well fitted inhibition curve with a large enough effect; inconclusive means small, poorly fitted or top-dose-only effect; inactive means flat fitted curve, though single readings scatter. Potencies of inconclusive entries are doubtful fits and often do not repeat.
Assay: qHTS for Inhibitors of human tyrosyl-DNA phosphodiesterase 1 (TDP1): qHTS in cells in absence of CPT; further: nearly all actives have a fitted effect of over 55% in size
Conditions: DT40 Tdp1-/- hTDP1 cells, no CPT, ATP luminescence, 48 h; activity change, negative = growth inhibition: at 46.2 µM (top of the series) unless noted
Outline: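 Cells were dispensed at 400 per well, compounds added by pin tool, plates incubated ≥48 hr at 37 °C, then CellTiter-Glo added for 30 min at room temperature before luminescence reading. Line: DT40 Tdp1-/- complemented with hTDP1; camptothecin omitted.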
On the % scale 0 is the no-effect control and ±100 the full control effect; potency means the concentration at half of the fitted maximal effect; tags describe the fitted curve by direction and shape.

For COc1cc(C)ccc1OCC(=O)NC1CCCCCC1, which Potency is on record?
The Potency was inconclusive: 2.91 µM [inhibitor, partial curve].

For CCOC1(/N=C(\C)NS(=O)(=O)c2ccc(Cl)cc2)C(C)=CC(=O)C=C1C, which Potency is on record?
Its Potency is inconclusive: 25.9 µM [inhibitor, single point].

Which Potency does the source give for Cc1cc(=O)oc2c(C(=O)/C=C/c3ccccc3)c(O)ccc12 here?
Its Potency is inconclusive: 13 µM [inhibitor, partial curve].

Which “activity change, negative = growth inhibition” value does the source give for Cc1nn(-c2ccccc2)c(/N=C/c2ccccc2O)c1-c1ccccc1 here?
Its value is inactive: 1.43%.

With Cc1nnc(SCC(=O)NC2(C#N)CCCCC2)n1N as the compound, how does the “activity change, negative = growth inhibition” value read?
The value was inactive: -0.323%.

Which “activity change, negative = growth inhibition” value does the source give for CS(=O)(=O)N1CCCCC1c1cc(C(=O)Nc2cccc(C#N)c2)no1 (stereo unspecified) here?
The value was inactive: -16.2%.

For CN(C)CCCNC(=O)c1ccc2[nH]c3ccccc3c2c1, which “activity change, negative = growth inhibition” value is on record?
The value was inactive: -12.1%.

Which Potency does the source give for O=C(O)CN1C(c2ccccc2O)Nc2ccc(Br)cc2C1c1ccccc1 (stereo unspecified) here?
Its Potency is inconclusive: 25.9 µM [inhibitor, single point].

Which Potency does the source give for CCCN(C(=O)CCc1nc(-c2ccc(C)cc2)no1)c1ccc(OCC)cc1 here?
Its Potency is inconclusive: 25.9 µM [inhibitor, single point].

Which Potency does the source give for COc1ccc2nc(SCC(O)c3cccc(Br)c3)[nH]c2c1 (stereo unspecified) here?
Its Potency is inconclusive: 29.1 µM [inhibitor, single point].

Which Potency does the source give for O=C1NC[C@H](CCCCN2C[C@H](Cc3ccccc3)N(CCC3CCCCC3)C(=O)C2=O)N(CCc2ccccc2)C1=O here?
Its Potency is inconclusive: 29.1 µM [inhibitor, single point].

Which “activity change, negative = growth inhibition” value does the source give for c1ccc(-c2nnc(-c3ccccc3)nn2)cc1 here?
Its value is inactive: -9.63%.

For Clc1c(-c2nnc3n2CCCCC3)sc2ccccc12, which Potency is on record?
The Potency was inconclusive: 29.1 µM [inhibitor, single point].

Which Potency does the source give for Cc1ccc(CN2CCN(/N=C/C(Br)=C\c3ccccc3)CC2)cc1 here?
The Potency was active: 4.11 µM.

With O=C(Nc1cccc(-c2nnco2)c1)c1cccs1 as the compound, how does the “activity change, negative = growth inhibition” value read?
The value was inactive: -25.2%.

With Cc1nnsc1-c1c(C(=O)Oc2ccccc2)c(C)nn1-c1ccccc1 as the compound, how does the Potency read?
Its Potency is inconclusive: 25.9 µM [inhibitor, single point].

For CC(=O)N1CCC(N(CCN2CCOCC2)C(=S)Nc2ccccc2C)CC1, which “activity change, negative = growth inhibition” value is on record?
The value was inactive: 0.716%.

With O=C(CCCSc1nc(-c2ccco2)cc(C(F)(F)F)n1)NCC1CCCO1 (stereo unspecified) as the compound, how does the Potency read?
Its Potency is inconclusive: 29.1 µM [inhibitor, single point].

Which Potency does the source give for COc1ccc(OC)c(NC(=O)C2CCCCC2C(=O)O)c1 (stereo unspecified) here?
Its Potency is inconclusive: 13 µM [inhibitor, partial curve, poor fit].

For CN(C)C(=O)c1cc(F)ccc1Sc1cc(Cl)ccc1Cl, which Potency is on record?
The Potency was inconclusive: 29.1 µM [inhibitor, single point].

For COc1cccc2c1cc1c(=O)n(CC(=O)N3CCN(c4ccc(F)cc4)CC3)nc(C)n12, which “activity change, negative = growth inhibition” value is on record?
Its value is inactive: -15.7%.

For c1nc(NCc2ccc3c(c2)OCO3)c2[nH]cnc2n1, which Potency is on record?
Its Potency is inconclusive: 35.5 µM [inhibitor, single point].

For COn1c(SCC(N)=O)nc2ccccc2c1=O, which “activity change, negative = growth inhibition” value is on record?
The value was inactive: 3.14%.

Which Potency does the source give for CC(N)c1csc(NC(=O)Nc2cccc(C(F)(F)F)c2)n1 (stereo unspecified) here?
Its Potency is inconclusive: 18.4 µM [inhibitor, single point].

For Cc1nn(-c2ccc(N3CCCCC3)nn2)c(C)c1CCC(=O)NCc1ccccc1, which Potency is on record?
The Potency was inconclusive: 13 µM [inhibitor, single point].

Which Potency does the source give for CCN(CC)C(=O)CSc1nc2cc3c(cc2c(=O)n1CCCC(=O)NCc1ccc2c(c1)OCO2)OCO3 here?
Its Potency is active: 16.4 µM.

For O=S1(=O)CCOC[C@H](CC2CCCCC2)N1Cc1ccc(F)cc1, which Potency is on record?
The Potency was inconclusive: 501 nM [inhibitor, full curve, poor fit] and inconclusive: 8.2 µM [inhibitor, partial curve].

Which Potency does the source give for COc1ccc(F)c(C2C(C#N)=C(N)Oc3n[nH]c(C(C)(C)C)c32)c1 (stereo unspecified) here?
The Potency was inconclusive: 29.1 µM [inhibitor, single point].

With O=C(Cn1nc(N2CCN(c3ccccc3)CC2)ccc1=O)NCc1ccccc1F as the compound, how does the Potency read?
Its Potency is inconclusive: 14.6 µM [inhibitor, partial curve].

With CCCCCCn1c(CN2CCCCC2)nc2c1c(=O)n(C)c(=O)n2C as the compound, how does the Potency read?
Its Potency is active: 20.6 µM.

Which Potency does the source give for CCOc1ccc(-n2c(N)c(C(=O)NCc3ccco3)sc2=S)cc1 here?
The Potency was inconclusive: 29.1 µM [inhibitor, single point].

With CC(=O)Nc1ccc(C(=O)N2CCCCC2c2cc(C(=O)Nc3ccccc3)no2)cc1 (stereo unspecified) as the compound, how does the “activity change, negative = growth inhibition” value read?
Its value is inactive: -16.3%.

For Cc1ccc(Sc2ccc(N3CCCC(C(=O)Nc4ccc(F)cc4)C3)nn2)cc1 (stereo unspecified), which Potency is on record?
The Potency was inconclusive: 18.4 µM [inhibitor, single point].

Which “activity change, negative = growth inhibition” value does the source give for COc1ccc(OC2CCN(S(=O)(=O)c3ccccc3)CC2)cc1 here?
The value was inactive: 11.6%.

Which Potency does the source give for COc1ccc(CCC(C)N2CCC(Oc3ccc(C(=O)N4CCCC4)cc3)CC2)cc1 (stereo unspecified) here?
The Potency was inconclusive: 29.1 µM [inhibitor, single point].

Which Potency does the source give for Cc1ccc(-n2c(SCC(=O)Nc3cccc(S(N)(=O)=O)c3)nc3ccccc32)cc1 here?
Its Potency is inconclusive: 18.4 µM [inhibitor, single point].

For COc1ccc(-c2[nH]ncc2-c2cscn2)c(O)c1, which “activity change, negative = growth inhibition” value is on record?
Its value is inactive: -6.28%.

With Cc1ccc(-c2nnc(SCC(=O)NC(C)(C)C)nc2-c2ccc(C)cc2)cc1 as the compound, how does the Potency read?
Its Potency is inconclusive: 23.1 µM [inhibitor, single point].

Which “activity change, negative = growth inhibition” value does the source give for Cc1ccc2[nH]c(C(=O)N3CCOCC3)cc2c1 here?
The value was inactive: 7.68%.

With CCOCCN1CCN(C2c3ccccc3CSc3ccccc32)CC1 (stereo unspecified) as the compound, how does the Potency read?
The Potency was inconclusive: 29.1 µM [inhibitor, single point].

Which Potency does the source give for CN1CCc2c(sc(NC(=O)c3ccc(S(=O)(=O)N4CCCCCC4)cc3)c2C(N)=O)C1 here?
The Potency was active: 11.6 µM.

Which “activity change, negative = growth inhibition” value does the source give for Nc1nc(SCn2nnc3ccccc3c2=O)n[nH]1 here?
Its value is inactive: 1.57%.

For COc1ccccc1NC(=O)C1CCN(C(=O)NCc2ccccc2)CC1, which Potency is on record?
The Potency was inconclusive: 6.51 µM [inhibitor, single point].

With O=C(Nc1cccc(C(F)(F)F)c1)c1ccc2sc([C@H]3C[C@H](O)[C@@H](CO)O3)nc2c1 as the compound, how does the Potency read?
Its Potency is active: 23.1 µM.

With CCOc1ccc(NC(=O)c2cn(C3CCCCC3)c(=O)c3c2c2ccccc2n3C)cc1 as the compound, how does the Potency read?
Its Potency is inconclusive: 16.4 µM [inhibitor, partial curve].

For CCOP(=O)(OCC)c1nc(-c2cccc([N+](=O)[O-])c2)oc1N1CCCCC1, which Potency is on record?
Its Potency is active: 20.6 µM.

For COc1cccc(-c2nnc(SCc3nc4ccccc4[nH]3)n2N)c1, which Potency is on record?
The Potency was inconclusive: 20.6 µM [inhibitor, single point].

Which “activity change, negative = growth inhibition” value does the source give for CC(=O)CCc1ccccc1 here?
Its value is inactive: 7.37%.

With COc1ccc(-c2nc3ccncc3[nH]2)cc1OC as the compound, how does the Potency read?
The Potency was inconclusive: 29.1 µM [inhibitor, single point].

For COc1ccc(OCC(=O)N2CCC(Cc3ccccc3)CC2)cc1, which Potency is on record?
Its Potency is inconclusive: 20.6 µM [inhibitor, partial curve].

With C=CCn1c(N)c(C(=O)OC(C)CC)c2nc3ccccc3nc21 (stereo unspecified) as the compound, how does the Potency read?
The Potency was inconclusive: 25.9 µM [inhibitor, single point].

With Cc1onc(-c2ccccc2)c1C(=O)OCCOc1ccccc1F as the compound, how does the Potency read?
Its Potency is inconclusive: 23.1 µM [inhibitor, single point].

For Cc1ccc(C(=O)N/C(=C\c2ccccc2)C(=O)OCc2ccccc2)cc1, which Potency is on record?
The Potency was inconclusive: 25.9 µM [inhibitor, single point].

For CCOc1ccc(C(=O)N(Cc2nc(-c3cccc(C)c3)no2)C(C)C)cc1, which Potency is on record?
Its Potency is inconclusive: 23.1 µM [inhibitor, single point].

For O=C(N/N=C\c1ccc(Sc2ccccn2)o1)c1cccc(Br)c1, which “activity change, negative = growth inhibition” value is on record?
The value was inactive: -8.07%.

For O=C(Cn1cnc2ccccc21)N1CCN(S(=O)(=O)c2ccccc2)CC1, which Potency is on record?
Its Potency is inconclusive: 10.3 µM [inhibitor, partial curve].

For CCn1cnc2c1c(=O)n(Cc1cccc([N+](=O)[O-])c1)c(=O)n2Cc1ccccc1, which Potency is on record?
Its Potency is inconclusive: 18.4 µM [inhibitor, single point].

With O=C(c1ccc(Cl)cc1[N+](=O)[O-])N1CCc2ccccc2C1 as the compound, how does the Potency read?
Its Potency is inconclusive: 9.2 µM [inhibitor, single point].

For COc1ccc2nc(SCC(=O)NC3CCCc4ccccc43)[nH]c2c1 (stereo unspecified), which Potency is on record?
Its Potency is inconclusive: 29.1 µM [inhibitor, single point].

With COc1ccc(S(=O)(=O)N2CCOCC2)cc1NC(=O)COc1ccccc1 as the compound, how does the “activity change, negative = growth inhibition” value read?
Its value is inactive: -24.6%.

For O=C1c2cccc3c([N+](=O)[O-])ccc(c23)C(=O)N1O, which Potency is on record?
The Potency was active: 2.31 µM.

With Cc1cccc(NC(=O)CSc2nnc(CNC(=O)c3ccc(S(=O)(=O)N(C)C)cc3)n2-c2cccc(C)c2)c1 as the compound, how does the Potency read?
Its Potency is inconclusive: 23.1 µM [inhibitor, partial curve, poor fit].

For O=C(CO/N=C/c1ccccc1O)NNC(=O)c1ccccc1Cl, which Potency is on record?
The Potency was active: 0.184 µM.

With COc1ccc(-c2nc(CN3CCC(C(=O)NCc4ccc(C)cc4)CC3)c(C)o2)cc1OC as the compound, how does the Potency read?
The Potency was inconclusive: 23.1 µM [inhibitor, single point].

With FC(F)(F)c1cccc(-c2cc3nc(NC4CCCCC4)ccn3n2)c1 as the compound, how does the Potency read?
The Potency was inconclusive: 29.1 µM [inhibitor, single point].

Which Potency does the source give for COc1ccc(CNCCCn2cnc(C(=O)Nc3ccc(C)c(C)c3)n2)cc1 here?
Its Potency is active: 16.4 µM.

Which Potency does the source give for Cc1cccc2cc(CN(Cc3cccnc3)C(=O)c3ccccc3F)c(Cl)nc12 here?
The Potency was inconclusive: 18.4 µM [inhibitor, single point].

For O=S(=O)(NCCSc1ccc(Cl)cc1)c1ccc(F)cc1, which activity change, negative = growth inhibition is on record?
Its activity change, negative = growth inhibition is inconclusive: -31.7% [inhibitor].

For NC(=O)c1c(NC(=O)CN2CCCC2)sc2c1CCCC2, which Potency is on record?
Its Potency is active: 16.4 µM.

With CCOc1ccc(CNC(=O)CCCn2c(=O)c3cccn3c3ccccc32)cc1 as the compound, how does the Potency read?
Its Potency is inconclusive: 18.4 µM [inhibitor, single point].

For O=C(CSc1ccc(-c2ccc(Br)cc2)nn1)NC1CCCC1, which Potency is on record?
Its Potency is inconclusive: 6.51 µM [inhibitor, partial curve, poor fit].

Source: PubChem BioAssay AID686978 (National Center for Advancing Translational Sciences (NCATS), 2013)
